# Measurements from the supplement of paper PMC12217912.
# The other results are listed elsewhere or left out. Sequences were assembled here from the parent chain. Values near 0.05 are background.
# B1: TEV protease; numbered along this chain (parent)
# chain: MGESLFKGPRDYNPISSSICHLTNESDGHTTSLYGIGFGPFIITNKHLFRRNNGTLVVQSLHGVFKVKDTTTLQQHLVDGRDMIIIRMPKDFPPFPQKLKFREPQREERICLVTTNFQTKSMSSMVSDTSCTFPSGDGIFWKHWIQTKDGQCGSPLVSTRDGFIVGIHSASNFTNTNNYFTSVPKNFMELLTNQEAQQWVSGWRLNADSVLWGGHKVFMVKPEEPFQPVKEATQL
# Variants of: B1
# Assay: raw area under fraction-flipped curve 0-4 h after induction (AUC4h, not background-subtracted), DNA-recorder readout of cleavage of the substrate (dimensionless); higher = more cleavage of the substrate by the protease variant
# Details: temperature: 34 °C; time window: 0-4 h after rhamnose induction
# Experimental: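 In vivo DNA recorder in E. coli TOP10(DE3) ΔrhaA at 34 °C. Each TEVp single-site mutant (parent TEVp 0) is paired with a single-site variant of the 7-mer TEVs (canonical ENLYFQ|S). The substrate sits between flexible linkers in a Bxb1-sfGFP-TEVs-SsrA fusion, so cleavage stabilises Bxb1 and speeds flipping of a recombination array, read by NGS. The value is the raw area under the fraction-flipped curve over 0-4 h after rhamnose induction (AUC4h), with ≥20 reads per time point. It is not background-subtracted; inactive controls average about 0.047.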
# 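Further: Bxb1 expression induced with 0.2% (w/v) L-rhamnose at OD600 near 0.5, cultures sampled hourly, flipped fraction per protease–substrate barcode pair counted by paired-end Illumina sequencing.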
Variant,area with substrate EALYFQS,area with substrate ECLYFQS,area with substrate EDLYFQS,area with substrate EELYFQS,area with substrate EHLYFQS,area with substrate EILYFQS,area with substrate EKLYFQS,area with substrate ELLYFQS,area with substrate EMLYFQS,area with substrate EPLYFQS,area with substrate EQLYFQS,area with substrate ERLYFQS,area with substrate ESLYFQS,area with substrate ETLYFQS,area with substrate EVLYFQS,area with substrate EYLYFQS,area with substrate EFLYFQS,area with substrate EGLYFQS,area with substrate EWLYFQS
MGESLFKGPRDYNPISSSICHLTNESDGHTTSLYGHGFGPFIITNKHLFRRNNGTLVVQSLHGVFKVKDTTTLQQHLVDGRDMIIIRMPKDFPPFPQKLKFREPQREERICLVTTNFQTKSMSSMVSDTSCTFPSGDGIFWKHWIQTKDGQCGSPLVSTRDGFIVGIHSASNFTNTNNYFTSVPKNFMELLTNQEAQQWVSGWRLNADSVLWGGHKVFMVKPEEPFQPVKEATQL [I36H],0.0501,0.0403,0.0573,0.062,0.0428,0.0358,0.0452,0.049,0.043,0.0466,0.0332,0.0476,0.0537,0.0524,0.0454,0.0485,–,–,–
MGESLFKGPRDYNPISSSICHLTNESDGHTTSLYGIGFGPFIITNKHLIRRNNGTLVVQSLHGVFKVKDTTTLQQHLVDGRDMIIIRMPKDFPPFPQKLKFREPQREERICLVTTNFQTKSMSSMVSDTSCTFPSGDGIFWKHWIQTKDGQCGSPLVSTRDGFIVGIHSASNFTNTNNYFTSVPKNFMELLTNQEAQQWVSGWRLNADSVLWGGHKVFMVKPEEPFQPVKEATQL [F49I],0.0599,0.063,0.0788,0.0594,0.0567,0.0589,0.0833,–,0.0957,0.0632,0.104,0.0658,0.0663,0.0732,0.0762,0.0676,0.0559,0.0587,0.053
MGESLFKGPRDYNPISSSICHLTNESDGHTTSLYGIGFGPFIITNKHLFRRNNGTLVVQSLHGVFKVKDTTTLQQHIVDGRDMIIIRMPKDFPPFPQKLKFREPQREERICLVTTNFQTKSMSSMVSDTSCTFPSGDGIFWKHWIQTKDGQCGSPLVSTRDGFIVGIHSASNFTNTNNYFTSVPKNFMELLTNQEAQQWVSGWRLNADSVLWGGHKVFMVKPEEPFQPVKEATQL [L77I],0.149,0.0907,0.0981,–,0.107,0.0796,0.0839,–,0.0887,0.0939,0.0899,–,0.0898,–,0.092,–,0.0889,0.0615,0.0846
MGESLFKGPRDYNPISSSICHLTNESDGHTTSLYGIGFGPFIITNKHLFRRNNGTLVVQSLHGVFKVKDTTTLQQHLVDGRDMIIIRMPKDFPPFPQKLKFREPQREERICLVTTNFQTKSMSSMVSDTSCTFPSGDGIFWKHWIQTKDGQCGSPLVSTRDGFIVGIHSASNFTNTNNYFTSVPKNFMELLTNQEAQQWVSGWLLNADSVLWGGHKVFMVKPEEPFQPVKEATQL [R204L],0.117,0.105,0.13,0.0738,0.128,0.0842,0.11,–,0.145,0.104,0.117,0.0926,0.0981,–,0.0813,0.112,–,0.0971,0.0877
MGESLFKGPRDYNPISSSICHLTNESDGHTTSLYGIGFGPFIITNKHLFRRNNGTLVVQSLHGVFKVKDTTTLQQHLVDGRDMIIIRMPKDFPPFPQKLKFREPQREERICLVTTNFQTKSMSSMVSDTSCTFPSGDGIFWKHWIQTKDGQCGSPLVSTRDGFIVGIHSASNFTNTNNYFTSVPKNFMELLTNQEADQWVSGWRLNADSVLWGGHKVFMVKPEEPFQPVKEATQL [Q197D],0.119,0.0939,0.0956,0.12,–,0.0547,0.0962,–,0.0821,–,–,0.0918,0.0753,0.109,0.0693,–,–,0.0665,–
MGESLFKGPRDYNPISSSICHLTNESDGHTTSLYGIGFGPFIITNKHLFRRNNGTLVVQSLHGVFKVKDTTTLQQHLVDGRDMIIIRMPKDFPPFPQKLKFREPQREERICLVTTNFQTKSMSSMVSDTSCTFPSGDGIFAKHWIQTKDGQCGSPLVSTRDGFIVGIHSASNFTNTNNYFTSVPKNFMELLTNQEAQQWVSGWRLNADSVLWGGHKVFMVKPEEPFQPVKEATQL [W141A],0.0458,0.0694,0.0554,0.0588,–,–,0.0443,–,0.0426,–,0.0457,0.0677,0.0594,–,0.0973,–,–,–,0.0591
MGESLFKGPRDYNPISSSICHLTNESDGHTTSLYGIGFGPFIITNKHLFRRNNGTLVVQSLHGVFKVKDTTTLQQHLVDGRDMIIIRMPKDFPPFPQKLKFREPQREERICLVTTNFQTKSMSSMVSDTSCTFPSGDGIFWKHWIQTKDGQCGSPLVSTRDGFIVGIHSASNFTNTNNYFTSVPKNFMELLTNQEAQQEVSGWRLNADSVLWGGHKVFMVKPEEPFQPVKEATQL [W199E],0.0606,0.0633,0.0681,0.0655,0.0688,0.0677,0.0665,0.0729,–,–,0.0629,–,0.0691,–,0.0541,0.0529,–,0.052,–
MGESLFKGPRDYNPISSSICHLTNESDGHTTSLYGIGFGPFIITNKHLFRRNNGTLVVQSLHGVFKVKDTTTLQQHLVDGRDMIIIRMPKDFPPFPQKLKFREPQREERICLVTTNFQTKSMSSMVSDTSCTFPSGDGIFWKHWIQTKDGQCGSPLVSTRDGFIVGIHSASNFTNTNNYFTSVPKNFMELLTNQEAQQNVSGWRLNADSVLWGGHKVFMVKPEEPFQPVKEATQL [W199N],0.0907,0.0583,0.0799,–,–,0.037,0.0455,0.0704,0.0544,0.0619,0.0639,0.0729,0.0673,–,–,–,0.0645,–,–
MGESLFKGPRDYNPISSSICHLTNESDGHTTSLYGIGFGPFIITNKHLFRRNNGTLVVQSLHGVFKVKDTTTLQQHLVDGRDMIIIRMPKDFPPFPQKLKFREPQREERICLVTTNFQTKSMSSMVSDTSCTFPSGDGIFWKHWIQTKDGQCGSPLVSTRDGFIVGIHSASNFTNTNNYFTSVPKNFMELLTNQEAQQWVSGWRGNADSVLWGGHKVFMVKPEEPFQPVKEATQL [L205G],0.0718,0.0645,0.0881,0.0395,0.0821,–,0.0773,–,0.0563,–,–,0.0668,0.0693,0.0617,0.0523,0.0598,–,0.0735,–
